According to paper PMC9834311, “Changes within the central stalk of E. coli F1Fo ATP synthase observed after addition of ATP” (Communications Biology, 2023):

What was measured:
[1] = molecular target: T1, E. coli F1Fo ATP synthase subunit ε (wild type, full length) (E. coli, UniProt P0A6E6 1-139); test: cryo-EM structure; detergent-solubilised (digitonin) cysteine-free E. coli F1Fo ATP synthase (WT at 11 μM, εΔCTH2 mutant at 9 μM) with 10 mM MgATP, pH 8.0, 22 °C, 45 s in all until freezing; details: both partners purified
T1 construct: ATP synthase epsilon chain, E. coli; subunit of the cysteine-free enzyme (all cysteines to alanine); also called ε subunit; WT; source: E. coli DK8, purified as part of the F1Fo complex (digitonin extraction, Talon resin, Superose 6 SEC)
T1 sequence (looked up): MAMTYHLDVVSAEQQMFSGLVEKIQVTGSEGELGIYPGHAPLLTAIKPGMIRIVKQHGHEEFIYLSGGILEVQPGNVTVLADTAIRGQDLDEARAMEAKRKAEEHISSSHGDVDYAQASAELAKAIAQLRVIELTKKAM

[2] = molecular target: the molecule itself; test: as above

B1: E. coli F1Fo ATP synthase subunit c (natural protein)
chain: MENLNMDLLYMAAAVMMGLAAIGAAIGIGILGGKFLEGAARQPDLIPLLRTQFFIVMGLVDAIPMIAVGLGLYVMFAVA
notes: ATP synthase subunit c, E. coli; subunit of the cysteine-free enzyme (all cysteines to alanine); also called c subunit; c-ring; source: E. coli DK8, purified as part of the F1Fo complex (digitonin extraction, Talon resin, Superose 6 SEC)
binding result [1]: binds | binding result [2]: binds
